Out of some 150,000 compounds screened, about 540 (0.36%) showed an effect of 50% or more. The list shows a part of the results.

This assay has as its system Plasmodium falciparum. Put plainly: Primary screen in NF54 nanoGlo assay, in single point, at 2uM, 72h; a lower Z score goes with more inhibition. Format: functional, Erythrocyte. Conditions: timepoint 72 hour.
Turning to `CC1=C(C#Cc2ccccc2)c2ccccc2O[C@@]1(c1ccccc1)N1CCCCC1`, the “% Inhibition” value is given as -1% and the Z score was found to be 0.11.

With `CCn1ccc(C(=O)N2CCC[C@H](CN3CCOCC3)CC2)n1`, the “% Inhibition” value is listed as 8% and the Z score was -1.31.

As for `COCCn1cc(C(=O)N[C@H]2CCCc3c2[nH]c2c(Cl)cccc32)c2ccccc2c1=O`, the “% Inhibition” value came out at 5% and the Z score is -0.6.

Take `COCCN(CC#N)Cc1cccs1`: the “% Inhibition” value was -19% and the Z score was found to be 1.97.

As for `CC[C@H](C)C(=O)N1CCN(c2ncccc2-c2nnc(C(C)C)o2)CC1`, the “% Inhibition” value is given as -10% and the Z score came to 0.94.

For the molecule `CCc1ccc(C(=O)N2CCC3(CCC(=O)N3)CC2)s1`, the “% Inhibition” value was -1% and the Z score is listed as 0.23.

As for `OC[C@H]1CCCN(CCNc2ncc(Cl)cc2Cl)C1`, the “% Inhibition” value is on record as -16% and the Z score turned out to be 2.05.

On to `COc1cc(Cn2cnc(-c3ccccc3)cc2=O)cc(OC)c1`, for which the “% Inhibition” value came out at 21% and the Z score was -2.81.

As to `Cc1ccccc1-c1noc(C[C@H]2CCCN(S(=O)(=O)N3CCCC3)C2)n1`, the “% Inhibition” value was determined as 12% and the Z score is recorded as -1.61.

For `Cc1ccc(C)n1-c1ccc(Cl)c(C(=O)Nc2cccnc2N(C)C)c1`, the “% Inhibition” value is 27% and the Z score was -3.94.

On to `Cc1cc(C(=O)NC2CCN(c3cc(C)[nH]n3)CC2)[nH]n1`, for which the “% Inhibition” value is on record as -15% and the Z score is recorded as 1.92.

As to `O=C(N[C@]1(C(=O)O)CCCc2ccccc21)c1csc(-c2cccs2)n1`, the “% Inhibition” value is -12% and the Z score worked out at 2.17.

For `Cc1ccc(OC(=O)C2CCC(N3C(=O)C4CCCCC4C3=O)CC2)cc1` (stereo not given), the “% Inhibition” value came out at 3% and the Z score is given as -0.34.

For the molecule `O=c1[nH]c2ccc(-c3csc(-c4ccco4)n3)cc2[nH]1`, the “% Inhibition” value is recorded as -14% and the Z score amounted to 2.25.

Consider `COc1ccc(C[C@@](C#N)(CC(=O)Nc2ccccc2)c2nc3ccccc3[nH]2)cc1`, for which the “% Inhibition” value is reported as 1% and the Z score was -0.18.

With `O=C1[C@@H]2CCCN2C(=O)N1Cc1noc(-c2ccoc2)n1`, the “% Inhibition” value stood at 0% and the Z score was determined as 0.03.

Take `O=C(CC1CCCC1)N1CCC[C@@H]1CCc1noc(C2CC2)n1`: the “% Inhibition” value was -12% and the Z score amounted to 1.94.

Take `O=C(c1ncccc1O)N1CCCC1CC(O)c1ccc(F)cc1` (stereo not given): the “% Inhibition” value is -5% and the Z score is recorded as 0.6.

As for `CN(Cc1ncnn1C)C(=O)NC(C1CCCC1)C1CCCC1`, the “% Inhibition” value is 2% and the Z score is listed as -0.32.

`CCn1cc(S(=O)(=O)NC[C@H]2Cn3cccc3CN2Cc2cccnc2)cn1`: the “% Inhibition” value came to 6% and the Z score was -1.13.

In the case of `O=C1CCCC[C@@](Cc2cccnc2)(C(=O)NCc2ccccn2)N1`, the “% Inhibition” value was found to be 5% and the Z score is -0.54.

In the case of `C=CCn1ccc2ccn(CCN3CCCCC3)c(=O)c21`, the “% Inhibition” value was -19% and the Z score is recorded as 1.63.

Turning to `Oc1cc2c(cc1-n1cnnc1)CCCC2`, the “% Inhibition” value is recorded as -7% and the Z score turned out to be 0.66.

Turning to `CCS(=O)(=O)N1CCC(C(=O)N2CCCCCC2)CC1`, the “% Inhibition” value is given as -3% and the Z score worked out at 0.47.

Regarding `C=CCn1ncc(CN(Cc2cccnc2)C2CCCCC2)c1C`, the “% Inhibition” value is -8% and the Z score is 1.27.

With `CCc1nc(OCC(=O)NCCCOC)c2c(-c3ccc(F)cc3)noc2n1`, the “% Inhibition” value was determined as 4% and the Z score is -0.56.

In the case of `O=C(Nc1ccc2ccccc2c1)c1cccc(C(=O)Nc2ccc3ccccc3c2)c1`, the “% Inhibition” value was determined as 2% and the Z score is recorded as -0.37.

For `COc1ccc(Br)c(C(=O)N2CCC(n3cnc4ncccc4c3=O)CC2)c1`, the “% Inhibition” value is listed as -11% and the Z score is 1.82.

Take `COc1ccc(-c2c[n+](-c3ccc(Cl)cc3)c3n2CCCCC3)cc1`: the “% Inhibition” value is reported as 64% and the Z score was -6.22.

Take `CCOC(=O)CN(C(=O)c1cc2nccnc2cc1F)C(C)(C)C`: the “% Inhibition” value was 2% and the Z score was -0.37.

On to `Cc1cc(C)cc(NC(=O)[C@H]2CCCN(S(=O)(=O)c3cc4c(cc3C)NC(=O)CO4)C2)c1`, for which the “% Inhibition” value is reported as -13% and the Z score is reported as 1.48.

Take `O=S(=O)(CC1CCC1)N1CCNC[C@H]1c1ccccc1`: the “% Inhibition” value is listed as 5% and the Z score is reported as -1.05.

In the case of `COc1cc([C@@H]2CCCCCN2)cc(Cl)c1OC`, the “% Inhibition” value was -39% and the Z score is 4.59.

Regarding `CC(C)c1cc(C(=O)O[C@H](c2cnn(C)c2)C(F)(F)F)on1`, the “% Inhibition” value is -11% and the Z score is 1.45.

`C[C@H]1CCCN(CC(=O)Nc2cc(S(=O)(=O)N3CCCCC3)ccc2Cl)C1`: the “% Inhibition” value is given as -15% and the Z score is listed as 1.52.

Turning to `Cc1nc([C@H](O)C2CCCCC2)n(C(C)(C)C)n1`, the “% Inhibition” value is reported as -13% and the Z score came to 2.21.

Regarding `CC(C)n1cncc1CN1CCO[C@H](c2ccc(Cl)cc2)C1`, the “% Inhibition” value stood at 3% and the Z score is on record as -0.38.

With `O=C(Cc1noc(CN2CCCCCCC2=O)n1)NC1CCCCC1`, the “% Inhibition” value is reported as 9% and the Z score was -1.01.

As for `CN(Cc1ccsc1)C(=O)c1cccs1`, the “% Inhibition” value is on record as -2% and the Z score is given as 0.22.

With `Cc1ccc(CN2CCN(C(=O)c3cc(C(C)C)nn3C)[C@@H](C)C2=O)cc1`, the “% Inhibition” value is reported as -8% and the Z score was 1.54.

In the case of `C[C@H](C#N)CN(C)S(=O)(=O)NCc1nc(N(C)C)no1`, the “% Inhibition” value is recorded as -5% and the Z score is recorded as 0.73.

`Cc1cc(OCc2nc(CC(=O)Nc3nnc(C4CC4)s3)cs2)ccc1Cl`: the “% Inhibition” value is recorded as -15% and the Z score came to 2.79.

As to `CC1CC(CC(=O)N(C)C(C)CC#N)CC(C)(C)C1` (stereo not given), the “% Inhibition” value turned out to be 0% and the Z score was 0.04.

Take `O=C1NC(=O)[C@@]2(CCCN(c3ncnc4[nH]ccc34)C2)N1`: the “% Inhibition” value was 1% and the Z score is reported as -0.13.

Turning to `CCNc1nc(C)c(-c2nc(CC(N)=O)n[nH]2)s1`, the “% Inhibition” value is recorded as 5% and the Z score is on record as -0.66.

As to `Cc1cccc(-c2cn(CC3CC(F)(F)C3)nn2)n1`, the “% Inhibition” value is -10% and the Z score worked out at 1.48.

On to `COC[C@H]1CCCCN1C(=O)c1coc(CN2CCN(Cc3ccccc3)CC2)n1`, for which the “% Inhibition” value stood at 5% and the Z score is -0.91.

With `CCCN1C=NS(=O)(=O)c2cc(C(=O)Nc3ccccc3OC)ccc21`, the “% Inhibition” value is -8% and the Z score is recorded as 1.23.

On to `C#CCNC(=O)c1ccccc1Br`, for which the “% Inhibition” value is given as -1% and the Z score turned out to be 0.2.

In the case of `CCOc1ccccc1CNC(=O)c1ncoc1-c1cccs1`, the “% Inhibition” value is 2% and the Z score was -0.22.

As to `O=C1c2ccccc2C(c2ccc(O)cc2)(c2ccc(O)cc2)N1c1ccccc1`, the “% Inhibition” value is reported as -11% and the Z score is given as 1.48.

With `COc1ccc([C@H](C)NC(=O)c2cc(NC(C)=O)cc3nc(C)ccc23)cc1`, the “% Inhibition” value is listed as -6% and the Z score is recorded as 0.78.

As for `Cc1cnccc1CN(C)C(=O)c1cccn1C1CC1`, the “% Inhibition” value was 0% and the Z score is reported as 0.08.

`CCCCOCCCNC(=O)c1cc2c(c(OC)c1)O[C@@H](C)C2`: the “% Inhibition” value was -10% and the Z score is 1.56.

With `Cc1cc(N)ncc1-c1ccc(C(=O)N2CCCCCC2)cc1`, the “% Inhibition” value was -21% and the Z score came out at 1.83.

Source of the values: ChEMBL document CHEMBL4888484, “Replenishing the malaria drug discovery pipeline: Screening and hit evaluation of the MMV Hit Generation Library 1 (HGL1) against asexual blood stage Plasmodium falciparum ,using a nano luciferase reporter read-out” (2022).
